Data published in publication PMC9911399, “Two distinct binding modes provide the RNA-binding protein RbFox with extraordinary sequence specificity”.
Substitutions are numbered along the chain they refer to; changes in the protein carry UniProt numbers. This is one part of the list.

T1: RBFOX1 RRM RbFoxmut (Fox-RRM*) (Homo sapiens, UniProt Q9NWB1 109-208, R118D;E147R;N151S;E152T)
T1 sequence: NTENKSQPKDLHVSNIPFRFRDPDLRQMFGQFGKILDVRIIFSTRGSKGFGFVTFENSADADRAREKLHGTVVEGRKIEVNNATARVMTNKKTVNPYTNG

B1: GUUUAGA (DNA:RNA)
RNA: GGGAGACCGGAAUUCAGAUUGUCCGUUUAGAUUAAAUCCCGUCGUAGCCACCA
DNA 1: CAATCTGAATTCCGGTCTCCC
DNA 2: TGGTGGCTACGACGGGATT
B2: CCAUCGU (DNA:RNA)
RNA: B1 RNA with G25C, U26C, U27A, A29C, A31U
DNA 1: CAATCTGAATTCCGGTCTCCC
DNA 2: TGGTGGCTACGACGGGATT
B3: UUACGCC (DNA:RNA)
RNA: B1 RNA with G25U, U27A, U28C, A29G, G30C, A31C
DNA 1: CAATCTGAATTCCGGTCTCCC
DNA 2: TGGTGGCTACGACGGGATT
B4: UGAAUAA (DNA:RNA)
RNA: B1 RNA with G25U, U26G, U27A, U28A, A29U, G30A
DNA 1: CAATCTGAATTCCGGTCTCCC
DNA 2: TGGTGGCTACGACGGGATT
B5: ACCAUAC (DNA:RNA)
RNA: GGGAGACCGGAAUUCAGAUUGUCCACCAUACUUAAAUCCCGUCGUAGCCACCA
DNA 1: CAATCTGAATTCCGGTCTCCC
DNA 2: TGGTGGCTACGACGGGATT
B6: CCAUACG (DNA:RNA)
RNA: B1 RNA with G25C, U26C, U27A, G30C, A31G
DNA 1: CAATCTGAATTCCGGTCTCCC
DNA 2: TGGTGGCTACGACGGGATT
B7: GAACAAA (DNA:RNA)
RNA: B1 RNA with U26A, U27A, U28C, G30A
DNA 1: CAATCTGAATTCCGGTCTCCC
DNA 2: TGGTGGCTACGACGGGATT
B8: AGUACGC (DNA:RNA)
RNA: B5 RNA with C26G, C27U, U29C, A30G
DNA 1: CAATCTGAATTCCGGTCTCCC
DNA 2: TGGTGGCTACGACGGGATT
B9: CUGGUUC (DNA:RNA)
RNA: B5 RNA with A25C, C26U, C27G, A28G, A30U
DNA 1: CAATCTGAATTCCGGTCTCCC
DNA 2: TGGTGGCTACGACGGGATT
B10: GGGUUGG (DNA:RNA)
RNA: B1 RNA with U26G, U27G, A29U, A31G
DNA 1: CAATCTGAATTCCGGTCTCCC
DNA 2: TGGTGGCTACGACGGGATT
B11: GUCAUUC (DNA:RNA)
RNA: B5 RNA with A25G, C26U, A30U
DNA 1: CAATCTGAATTCCGGTCTCCC
DNA 2: TGGTGGCTACGACGGGATT
B12: AGGAGGC (DNA:RNA)
RNA: B5 RNA with C26G, C27G, U29G, A30G
DNA 1: CAATCTGAATTCCGGTCTCCC
DNA 2: TGGTGGCTACGACGGGATT
B13: UCUCGAC (DNA:RNA)
RNA: B5 RNA with A25U, C27U, A28C, U29G
DNA 1: CAATCTGAATTCCGGTCTCCC
DNA 2: TGGTGGCTACGACGGGATT
B14: GUCCGAC (DNA:RNA)
RNA: B5 RNA with A25G, C26U, A28C, U29G
DNA 1: CAATCTGAATTCCGGTCTCCC
DNA 2: TGGTGGCTACGACGGGATT
B15: GAUACGC (DNA:RNA)
RNA: B1 RNA with U26A, U28A, A29C, A31C
DNA 1: CAATCTGAATTCCGGTCTCCC
DNA 2: TGGTGGCTACGACGGGATT
B16: GCGACCC (DNA:RNA)
RNA: B5 RNA with A25G, C27G, U29C, A30C
DNA 1: CAATCTGAATTCCGGTCTCCC
DNA 2: TGGTGGCTACGACGGGATT
B17: AGCAGCU (DNA:RNA)
RNA: B5 RNA with C26G, U29G, A30C, C31U
DNA 1: CAATCTGAATTCCGGTCTCCC
DNA 2: TGGTGGCTACGACGGGATT
B18: ACCACUA (DNA:RNA)
RNA: B5 RNA with U29C, A30U, C31A
DNA 1: CAATCTGAATTCCGGTCTCCC
DNA 2: TGGTGGCTACGACGGGATT
B19: CUUGACA (DNA:RNA)
RNA: B1 RNA with G25C, U28G, G30C
DNA 1: CAATCTGAATTCCGGTCTCCC
DNA 2: TGGTGGCTACGACGGGATT
B20: UUUACUU (DNA:RNA)
RNA: B1 RNA with G25U, U28A, A29C, G30U, A31U
DNA 1: CAATCTGAATTCCGGTCTCCC
DNA 2: TGGTGGCTACGACGGGATT
B21: CGGCAAU (DNA:RNA)
RNA: B5 RNA with A25C, C26G, C27G, A28C, U29A, C31U
DNA 1: CAATCTGAATTCCGGTCTCCC
DNA 2: TGGTGGCTACGACGGGATT
B22: AGAUAGC (DNA:RNA)
RNA: B1 RNA with G25A, U26G, U27A, A31C
DNA 1: CAATCTGAATTCCGGTCTCCC
DNA 2: TGGTGGCTACGACGGGATT
B23: CUCAUGG (DNA:RNA)
RNA: B5 RNA with A25C, C26U, A30G, C31G
DNA 1: CAATCTGAATTCCGGTCTCCC
DNA 2: TGGTGGCTACGACGGGATT
B24: AGACAGA (DNA:RNA)
RNA: B1 RNA with G25A, U26G, U27A, U28C
DNA 1: CAATCTGAATTCCGGTCTCCC
DNA 2: TGGTGGCTACGACGGGATT
B25: AGCAGAU (DNA:RNA)
RNA: B5 RNA with C26G, U29G, C31U
DNA 1: CAATCTGAATTCCGGTCTCCC
DNA 2: TGGTGGCTACGACGGGATT
B26: UGAUAGU (DNA:RNA)
RNA: B1 RNA with G25U, U26G, U27A, A31U
DNA 1: CAATCTGAATTCCGGTCTCCC
DNA 2: TGGTGGCTACGACGGGATT
B27: AGGCGUA (DNA:RNA)
RNA: B5 RNA with C26G, C27G, A28C, U29G, A30U, C31A
DNA 1: CAATCTGAATTCCGGTCTCCC
DNA 2: TGGTGGCTACGACGGGATT
B28: AAUACAC (DNA:RNA)
RNA: B5 RNA with C26A, C27U, U29C
DNA 1: CAATCTGAATTCCGGTCTCCC
DNA 2: TGGTGGCTACGACGGGATT
B29: AGGUCUC (DNA:RNA)
RNA: B5 RNA with C26G, C27G, A28U, U29C, A30U
DNA 1: CAATCTGAATTCCGGTCTCCC
DNA 2: TGGTGGCTACGACGGGATT
B30: UCGACAU (DNA:RNA)
RNA: B5 RNA with A25U, C27G, U29C, C31U
DNA 1: CAATCTGAATTCCGGTCTCCC
DNA 2: TGGTGGCTACGACGGGATT
B31: UUCCUGG (DNA:RNA)
RNA: B5 RNA with A25U, C26U, A28C, A30G, C31G
DNA 1: CAATCTGAATTCCGGTCTCCC
DNA 2: TGGTGGCTACGACGGGATT

biological target: T1, RBFOX1 RRM RbFoxmut (Fox-RRM*); test: EMSA; HiTS-Eq, 1 nM pool, 10 min; buffer printed only for the single-RNA assays: 10 mM Tris pH 7.5, 150 mM NaCl, 3.4 mM EDTA, 0.001% NP-40, 30 C; details: tags: His6 N-terminal (pET28a); label: 5' 32P
Procedure, shortened: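 These values rest on relative association constants, computed from read-count changes of each RNA species versus the control reaction and normalised to the cognate motif. Reads came from free RNA recovered by 8% native PAGE after purified RbFox RRM (wild type or mutant) at increasing concentrations was equilibrated for 10 min in 50 µL with 1 nM of a 5′-radiolabelled pool with 7 randomized nucleotides and DNA-annealed flanks.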

| Binder | binding signal |
| --- | --- |
| B1 | 0.119 KA relative to UGCAUGU |
| B2 | 0.114 KA relative to UGCAUGU |
| B3 | 0.12 KA relative to UGCAUGU |
| B4 | 0.104 KA relative to UGCAUGU |
| B5 | 0.0923 KA relative to UGCAUGU |
| B6 | 0.102 KA relative to UGCAUGU |
| B7 | 0.0875 KA relative to UGCAUGU |
| B8 | 0.0766 KA relative to UGCAUGU |
| B9 | 0.2 KA relative to UGCAUGU |
| B10 | 0.336 KA relative to UGCAUGU |
| B11 | 0.0653 KA relative to UGCAUGU |
| B12 | 0.118 KA relative to UGCAUGU |
| B13 | 0.0649 KA relative to UGCAUGU |
| B14 | 0.0921 KA relative to UGCAUGU |
| B15 | 0.0785 KA relative to UGCAUGU |
| B16 | 0.0575 KA relative to UGCAUGU |

| Binder | binding signal |
| --- | --- |
| B17 | 0.0917 KA relative to UGCAUGU |
| B18 | 0.116 KA relative to UGCAUGU |
| B19 | 0.0599 KA relative to UGCAUGU |
| B20 | 0.0978 KA relative to UGCAUGU |
| B21 | 0.053 KA relative to UGCAUGU |
| B22 | 0.0863 KA relative to UGCAUGU |
| B23 | 0.116 KA relative to UGCAUGU |
| B24 | 0.0824 KA relative to UGCAUGU |
| B25 | 0.101 KA relative to UGCAUGU |
| B26 | 0.125 KA relative to UGCAUGU |
| B27 | 0.166 KA relative to UGCAUGU |
| B28 | 0.0739 KA relative to UGCAUGU |
| B29 | 0.0995 KA relative to UGCAUGU |
| B30 | 0.0572 KA relative to UGCAUGU |
| B31 | 0.0746 KA relative to UGCAUGU |
